Source: the supplement of paper PMC11417369
Some of the results follow.

Test system: PfSIP2 AP2 domain 1 (GST-tagged)
Assay: gcPBM binding intensity (ln(normalized median fluorescence intensity)); higher = stronger DNA binding
Summary of the method: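 DNA-binding domains from P. falciparum, fused to GST and produced in E. coli, were put on an Agilent 4 × 180k double-stranded probe array for 1 h in 1× PBS holding 1% milk, 0.2 mg/ml BSA, 0.5% salmon testes DNA and 0.03% Triton X-100. Probes were primer-extended, 36 bp long and drawn from intergenic genomic regions, with negative controls included. After Alexa488 anti-GST antibody detection and a 488 nm scan, binding intensity was set as the highest Masliner-normalised natural-log median intensity across replicate spots of either probe orientation.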

Sequence	gcPBM binding intensity (ln)
ATTATATATAAGAAGAGTACTGAATATGTGCAATAT [XGTACX_site4471]	7.43
TATATACACCCACATACACACAAATAAAAAAACACC [CACACA_site3414]	8.14
GTATATAAATATATATATATATATATATCTATATTT [CACACA_negctrl_site871]	7.42
GTATTTTTACAAATTTGTACATATATATGAATATAC [XGTACX_site6717]	7.41
AAAGAAAAATTAACATGTACAAAAATTACTTGTTCA [XGTACX_site6725]	6.49
AAAAAAAATTCACACTGTACAAAAGCATAAATAAAC [XGTACX_site5408]	7.31
TCTGAAACAAGAAAAAGTACACAAATTACAAAACTA [XGTACX_site7641]	7.24
ATATTTACCTTTGTATGTACATATATAAAATATATC [XGTACX_site6367]	7.21
TTTTGTAAAAAGAAAAATTAGAATATATCGTATATA [XGTACX_negctrl_site617]	6.7
TAATAAATACAAAAATGTACACACATATATATATTT [XGTACX_site7430]	7.09
TTATTTATTTATTCATGTACGTGTATTTTTTAAAAA [XGTACX_site7915]	7.28
TATATATATATTATCACACACTCACGTTTGACAAAA [CACACA_site689]	8.54
ATTGGGTACAAATACACACACATATATATATTAAGA [CACACA_site5330]	6.89
AGTGTCATATTAACACGTACATAATTATTGTAGAGA [XGTACX_site568]	7.14
TATTACATACAATATTGTACATATCATATTTTGAAT [XGTACX_site2191]	6.97
ACGGAAAAAGAAAAGGTGCATATGGACACAATATAT	11.3
ATAGAAATATTATATTGTACGAACAGTTATTAACAA [XGTACX_site2137]	7.12
ATTATTTGTTTAAATTCACACACGTATATATATTTA [CACACA_site3050]	7.15
ACATGTAAATGGAAAAGTACTAATAACTTGTATTGG [XGTACX_site5181]	6.98
TTATTTTAATATAAAATACACACTACTATTATAAAT [CACACA_site1470]	6.85
TAATTATTAAAACATTGTACATTATTATAAACAATT [XGTACX_site4489]	6.88
ATATATAAATATATTACACACTTTTTCTTTTTTTTT [CACACA_site7332]	6.93
TTTTCCATAAGAATTACACACAGAAAGGATAAGTAT [CACACA_site105]	7.12

Sequence	gcPBM binding intensity (ln)
AAACAGCATGGTATACCTATAAAATATATATACTAA [GTGCAC_negctrl_site39]	6.96
CTTATATTAATTATTACACACATATTTATAAATGCA [CACACA_site6501]	7.2
ATTATCCATGCATTTACACACACACTAAAAAAAATT [CACACA_site7848]	7.89
ATGTATATATATTTGTGTACATATTTAGGAAATAAA [XGTACX_site2904]	7.1
AATTAAATTTATATGAATGTCAATTATATTGTTATA [XGTACX_negctrl_site261]	6.68
TTGAATTAAAAACATACATGCATATATATATATATA [TGCATGCA_site319]	9.49
TTATAAAATGGGCAAACACACACAAAAAAAAGATAT [CACACA_site8476]	7.27
AATAAATTACTATGTACACACATAAGAGTATAAATA [CACACA_site6940]	7.07
AAAAAGTTACATGGTGGTACTCAAATAAAATATTCT [XGTACX_site5993]	6.94
TTTTTTTTTTTTTGATGTACATAAATTAAGAATTAT [XGTACX_site7789]	7.04
AATATATCTTTTTACGGCAACCATATTTTTCCCATT [CACACA_negctrl_site963]	7
TTTATATGTGAAAAAAGTACAAGGAAAAAATTAAAC [XGTACX_site7269]	7.59
TATTATGTTATATATTGTACATGTTTATTGAAACAA [XGTACX_site5605]	6.91
TTTTTTTTAGTATGAACACACATATATATTATAAAA [CACACA_site2935]	6.94
TATTAACAAAATATAGCACACATAAATATATATTTA [CACACA_site8005]	7.01
AATATAATTATATGTGGTACAGAAATAATATAAAAT [XGTACX_site2366]	7.63
TTCTTTTTTTTTCTGGGTACATATATTCCAATCACT [XGTACX_site4770]	7.6
TTATAAAAGACAAAAGTGCATATATACATATGTATA	8.27
TATAACTTTTATAGGTGTACCCAATATTATATATAG [XGTACX_site7673]	6.97
CCATCTTTTTTACGATGTACAAGTATAAGGTATACG [XGTACX_site2697]	7.04
TTTATATGTTTTGTATTTTTAATAAATATTTTATTA [TGCATGCA_negctrl_site20]	7.06
TATATATAATAAGAAGGTACACGTAAGTAATAATTT [XGTACX_site934]	7.23
AAATAAATAAATTAACGTACATAATAACATTAATAT [XGTACX_site8567]	6.99

Sequence	gcPBM binding intensity (ln)
ATATATATATATGTATGTACACATATTTTTTAACTT [XGTACX_site431]	9.31
TGTAAAACCTCCTACACACACCAATTAACTATTCTA [CACACA_site7074]	6.9
TATATATATATTATTAGTACTTATTTTTTTTCATAT [XGTACX_site1279]	8.58
TTATATTATAGACACACACACAAAAAAAAAAAAAAA [CACACA_site3816]	6.93
TTATAATTTTAATGTGCACACAATTAAAATATTATA [CACACA_site5172]	9.21
TTTTGTTTATGTGTGCATTATATTATATTTTTTATT [TGCATGCA_negctrl_site146]	7.83
TATTGACAAAAAAAAAAAAGGTAAAAAAGAAAGAAA [GTGCAC_negctrl_site418]	6.65
TATAAATAAATATACACACACACATATAAATATGTA [CACACA_site6504]	6.94
TGTAAGAAATTGAGCGCACACATACATCTGTGGGAT [CACACA_site4945]	7.02
TAGTTGCACATGTATACACACAAAAAATATTTTATG [CACACA_site475]	7.68
AAAGAAAGGAATACGACACACAAAAAAAAAATATAT [CACACA_site1934]	7.08
AATAAATATAGGTACACACACAAATATGTACATATC [CACACA_site6976]	7.22
AAGTGGTTATAATCAACACACGTGGAATGTACTTTA [CACACA_site3700]	6.85
AAGAAACCATAATATGCATGCACATATTAATAAATA [TGCATGCA_site693]	7.82
CTACATACAAGAATTAAACACACACTAATTATAAAT [CACACA_site8986]	7
CCTCAATATTCACATACACACAATATCATCGAAGTA [CACACA_site1676]	7.23
GAAACGATTTAATACACACACGTATTATAGATATAT [CACACA_site6666]	6.86
AATAAGCATATACAAACATGCATACATATAAATAAA [TGCATGCA_site338]	6.72
TTTTTTTTTTTTTTGACACACATAATAAAATACAAA [CACACA_site3080]	7.22
TATATATTTGTAACGGGTACGTAGGTGTATATTCCA [XGTACX_site6028]	7.19
AGCCACGTGGTATATACACACATAATCAAATAAAAT [CACACA_site9364]	6.87
AAATATTTTAACGAGAGTACATAATAACAATTTATG [XGTACX_site3865]	7
GAAAGAATAAAATTTACACACATATATAAATACATA [CACACA_site5273]	6.85

Sequence	gcPBM binding intensity (ln)
AAAAAAAAAAAATACACACACACATATATATATATA [CACACA_site731]	9.54
TTTTTTTTTTTTTATTGTACTAAATTATAGAGGGGA [XGTACX_site2609]	7.66
ATAAAACAACACACTTGTACTAATTTTTTTTTTTTT [XGTACX_site8377]	6.96
TAATTTATAAGGTATAACAACAATTGCATCTATCAC [XGTACX_negctrl_site314]	7.06
TGAATAAATAGACACACACACATATATAAATATGTA [CACACA_site6159]	6.95
AACATACATAGACACACACACACACGCACACGCACA [CACACA_site6373]	8.43
GAAAATACGTTTAATCGTACATATATATAATATATA [XGTACX_site4243]	7.21
TATTTACCCTCATGTTGTACTTTTCATTCATTTTAT [XGTACX_site7794]	7.21
ACAAGTTTTTTTTTATCACACACAAAAAAAAAAATA [CACACA_site8377]	7.29
ATTAATTATAATGTATGTACATAACTTTTTTATATT [XGTACX_site5784]	7.15
TTTATTATTTTTAGGAGTACACAAAATAAAACAAAT [XGTACX_site8841]	7.59
TCTATAAAGGAATATACACACATATATAAATATGTA [CACACA_site6332]	6.93
AAAAACAGAAATGTAACACACAAAAATTCTATTTAT [CACACA_site4026]	6.67
TTTTGTTATAAATAATGTACATATTTATTTAAAATT [XGTACX_site6610]	6.88
TATAAAAATGTGCACACACACACATATTTATATTTA [CACACA_site6826]	8.97
AACCTTTATATGTAAAGTACAAAAAAGAGTAAAAAA [XGTACX_site5506]	6.85
AAAATCATTCCAAAGACATGCATTTTGCAAATAAAA [TGCATGCA_site461]	6.75
TATATTATATACCATTGTACATATAATATAGGTTCT [XGTACX_site7047]	6.92
AATATATGTATGTACGCATGTATGTATCTATGTATT [TGCATGCA_site389]	7.5
TTATAATTATATACATGTACATATAATACATATATA [XGTACX_site8904]	7.03
